The supplement of paper PMC10126150
Values marked as one replicate rest on one cluster of the flow cell; about a third of the high ones do not repeat.
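Further: ATP exposure 15 min at 22 °C before imaging.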

What follows are sequences tested on ATP (assay: switch fluorescence ratio, 500 uM ATP over buffer (Cy3 cluster intensity, sum of 5 cycles each) (fold (ratio)); higher = stronger signal-on switching upon ATP binding; sequences stand for … in TCGTCGGCAGCGTCAGATGTGTATAAGAGACAGTTTTTTTTTTTTTTTTTTTTTTTTT…TC). Details: aptamer strand: ATP DNA aptamer (quencher-CACCTGGGGGAGTATTGCGGAGGAAGG + anchor), 100 nM annealed; ATP concentration: 500 uM; one replicate.
Method in brief: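 Per cluster, summed Cy3 intensity from the target cycles was divided by that from the buffer cycles to give the fluorescence ratio, then averaged per switch-domain sequence. Clusters outside 100-1000 RFU were excluded. The Cy3-labelled switching-strand clusters, on a modified Illumina MiSeq flow-cell, were annealed to 100 nM quencher-labelled ATP aptamer and imaged in selection buffer, then after 15 min with 500 uM ATP at 22 °C, for five cycles with NaOH stripping and re-annealing between them.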
CCGGACGATG was tested, and the switch fluorescence ratio was 1.09. With CCGGAGGGTT the switch fluorescence ratio was 1.01. In the case of CCGGAGTGCC, the switch fluorescence ratio was 1.04. In the case of CCGGATATAA, the switch fluorescence ratio was 1.17. CCGGATGTGC was tested, and the switch fluorescence ratio was 1.51. In the case of CCGGCAAAA, the switch fluorescence ratio was 1.3. In the case of CCGGCCAATT, the switch fluorescence ratio was 2.71. Sequence CCGGCCGTTT has a switch fluorescence ratio of 0.993. Sequence CCGGCGTATT has a switch fluorescence ratio of 1.21. CCGGGAGT gave a switch fluorescence ratio of 0.984. CCGGGAGTAT gave a switch fluorescence ratio of 1.3. CCGGGCCTGG was tested, and the switch fluorescence ratio was 1.06. Work on CCGGGGCCCC yielded a switch fluorescence ratio of 0.991. CCGGGTAGGT gave a switch fluorescence ratio of 1.05. Work on CCGGGTCATC yielded a switch fluorescence ratio of 1.26. Work on CCGGGTGGCT yielded a switch fluorescence ratio of 1.14. CCGGTAACGG was tested, and the switch fluorescence ratio was 0.968. In the case of CCGGTAGTTT, the switch fluorescence ratio was 1.04. Work on CCGGTATAGT yielded a switch fluorescence ratio of 1.36. Work on CCGGTCATTT yielded a switch fluorescence ratio of 1.03. Work on CCGGTCCGC yielded a switch fluorescence ratio of 2.68. CCGGTGGCTA gave a switch fluorescence ratio of 1.61. CCGGTTCTCA gave a switch fluorescence ratio of 1.05. In the case of CCGGTTGCA, the switch fluorescence ratio was 1.12. CCGGTTGGGA showed a switch fluorescence ratio of 1.16. CCGGTTTTGT showed a switch fluorescence ratio of 1.03. CCGTAAAAGG gave a switch fluorescence ratio of 1.07. In the case of CCGTAAATCA, the switch fluorescence ratio was 1.21. For CCGTAGTACG, the switch fluorescence ratio was 1.55. With CCGTATGCCC the switch fluorescence ratio was 1.02. For CCGTATTCG, the switch fluorescence ratio was 1. CCGTCAGTT was tested, and the switch fluorescence ratio was 1.01. Sequence CCGTCATTGG has a switch fluorescence ratio of 1.29. For CCGTCCCCGC, the switch fluorescence ratio was 3.89. CCGTCCTTGT showed a switch fluorescence ratio of 1.02. For CCGTCTTCCG, the switch fluorescence ratio was 1.02. With CCGTGAGGGA the switch fluorescence ratio was 1. In the case of CCGTGCGCCG, the switch fluorescence ratio was 1.03. Work on CCGTGGAGG yielded a switch fluorescence ratio of 1.02. Sequence CCGTGGGGAG has a switch fluorescence ratio of 1.01. In the case of CCGTGGTGCG, the switch fluorescence ratio was 1.04. Work on CCGTGTTAAA yielded a switch fluorescence ratio of 1.02. CCGTGTTAGA gave a switch fluorescence ratio of 1.04. For CCGTGTTTGC, the switch fluorescence ratio was 1.21. CCGTTACTAT was tested, and the switch fluorescence ratio was 1.21. In the case of CCGTTCGGGC, the switch fluorescence ratio was 1.09. CCGTTCTAGG gave a switch fluorescence ratio of 1.01. CCGTTCTATC gave a switch fluorescence ratio of 1.42. With CCGTTGCGGG the switch fluorescence ratio was 1.07. For CCGTTGCGGT, the switch fluorescence ratio was 1.17. In the case of CCGTTGTCGG, the switch fluorescence ratio was 0.932. With CCGTTGTGTA the switch fluorescence ratio was 1.03. CCGTTTCCAT showed a switch fluorescence ratio of 0.996. For CCGTTTGGTG, the switch fluorescence ratio was 1.06. CCGTTTTGTG showed a switch fluorescence ratio of 1.03. In the case of CCTAAAGGGA, the switch fluorescence ratio was 1.01. For CCTAACCGCG, the switch fluorescence ratio was 2.23. With CCTAACCTTT the switch fluorescence ratio was 1.04. In the case of CCTAACTTAT, the switch fluorescence ratio was 1.01. Work on CCTAAGTGTG yielded a switch fluorescence ratio of 1.07. CCTACTTGAC was tested, and the switch fluorescence ratio was 1.29. Sequence CCTAGAACTT has a switch fluorescence ratio of 1.05. Work on CCTAGATGTC yielded a switch fluorescence ratio of 1.07. Sequence CCTAGATTCA has a switch fluorescence ratio of 0.998. CCTAGCAGGA gave a switch fluorescence ratio of 1.23. In the case of CCTAGCCAAC, the switch fluorescence ratio was 3.31. For CCTAGTGGCA, the switch fluorescence ratio was 1. In the case of CCTAGTTAG, the switch fluorescence ratio was 1.05. For CCTATCAGAG, the switch fluorescence ratio was 1.02. CCTATCCTTT showed a switch fluorescence ratio of 0.961. With CCTATCGT the switch fluorescence ratio was 1.06. CCTATCTGCG showed a switch fluorescence ratio of 0.996. For CCTATGGTCT, the switch fluorescence ratio was 1.03. For CCTATGTGGT, the switch fluorescence ratio was 1. CCTATGTTCT gave a switch fluorescence ratio of 0.999. In the case of CCTATTAGTC, the switch fluorescence ratio was 0.984.
